In US20090088378A1, “LONG LASTING INHIBITORS OF VIRAL INFECTION” (priority 2007, published 2009):

Experiments:
HIV-1 NL4-3G = assay: Antiviral activity in SCID-hu Thy/Liv mice inoculated with T-20-sensitive NL4-3G; type: in vivo
HIV-1 IIIB = settings: 50% inhibition of virus replication, PHA-stimulated PBMCs, 7 days, reverse transcriptase activity
Method: HIV-1 IIIB was obtained through the AIDS Research and Reference Reagent Program, Division of AIDS, NIAID, NIH courtesy of Dr. Robert C. […] Fresh human peripheral blood mononuclear cells (PBMCs), seronegative for HIV and HBV, were isolated from blood of screened donors (Biological Specialty Corporation; Colmar, Pa.) using Lymphocyte Separation Medium (LSM; Cellgro® by Mediatech, Inc.; density 1.078+/−0.002 g/ml) following the manufacturer's instructions. Cells were stimulated by incubation in 4 μg/mL Phytohemagglutinin (PHA; Sigma) for 48-72 hours. Mitogenic stimulation was maintained by the addition of 20 U/mL recombinant human IL-2 (R&D Systems, Inc) to the culture medium. PHA-stimulated PBMCs from at least two donors were pooled, diluted in fresh medium and added to 96-well plates at 5×10^4 cells/well. Cells were infected (final MOI≈0.1) in the presence of 9 different concentrations of test compounds (triplicate wells/concentration) and incubated for 7 days. […] Following removal of supernatant samples, compound cytotoxicity was measured by the addition of 3-(4,5-dimethylthiazol-2-yl)-5-(3-carboxymethoxyphenyl)-2-(4-sulfophenyl)-2H-tetrazolium (MTS; CellTiter 96 Reagent, Promega) following the manufacturer's instructions. […] AZT (nucleoside reverse transcriptase inhibitor) was used as the assay control compound.

## enfuvirtide
HIV-1 NL4-3G; 30 mg/kg s.c. every fourth day (Q4D) or every seventh day (Q7D), beginning 1 day before or 3 days after inoculation
  antiviral activity with infrequent or delayed dosing, HIV-1 RNA, p24, thymocyte depletion: no reduction in HIV-1 RNA or p24 nor did it protect from thymocyte depletion
HIV-1 NL4-3G; HIV-1-infected SCID-hu Thy/Liv mice, infrequent dosing
  antiviral activity with infrequent dosing: lost activity
HIV-1 IIIB
  IC50: 2.2 nM
